Experimental data published in publication PMC4721543, “Direct binding of hepatocyte growth factor and vascular endothelial growth factor to CD44v6” (Bioscience Reports, 2015).

Biological target: T1, human VEGF-A165 (human, biotin in the cellular ELISA; NT-647 (NHS) in MST and in one FCS series; ATTO 647N (NHS ester) in FCS; unlabelled in FACS and pull-down)
T1 construct: also called VEGF165; VEGF165-NT647; source: bought: Peprotech
Test: fluorescence correlation spectroscopy; 1-5 nM ATTO 647N-labelled growth factor with 0.1 nM to 20 μM unlabelled CD44 ectodomain; at least 3 h at room temperature; PBS with 0.05% Tween-20; 20°C; diffusion times fitted with a 1:1 binding model
Details: both partners purified

B1: human CD44s ectodomain, hexahistidine-tagged (domain or fragment)
chain: [about 200 residues not spelt out]ATRDQDTFHPSGGSHTTHGSESDGHSHGSQEGGANTTSGPIRTPQIPE
B1 gave a Kd of 1300 ± 600 nM.
